# Results reported in PubChem BioAssay (Tox21).
# “And” between values parts separate entries of the source, which are not always exact repeats. Equal values may be shown once. Inconclusive means that the source gave no clear call. Such entries were picked first, then a sample of the others. Potencies of inconclusive entries are doubtful fits and often do not repeat. Some compounds were tested as several samples or in several runs, with calls that do not always agree. The source made the active and inactive calls. The call rests on the fitted dose curve; in most records, active means well fitted curve in the direction sought with a large enough effect in the repeat runs; inconclusive means weak or mixed curves; inactive means no such curve, though single readings can be large; an effect the other way counts as inactive or inconclusive.
# Experiment: Caspase-3/7 induction in CHO-K1 cells by small molecules, qHTS cell viability counter screen (AID 1346979); further: nearly all actives have a fitted effect of over 35% in size; on activity change, negative = cytotoxicity: on the % scale 0 is the no-effect control and ±100 the full control effect
# Details: CellTiter-Fluor fluorescence, 17 h; series mostly up to 92.4 µM; activity change, negative = cytotoxicity: at the top concentration
# Procedure, shortened: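 Wild-type CHO-K1 cells were seeded at 1,500 per well, rested 5hr at 37 C, then exposed to compounds in DMSO. After 16hr, CellTiter-Fluor reagent was added and fluorescence read 1hr later as the viability measure.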
# Potency means the concentration at half of the fitted maximal effect; tags describe the fitted curve by direction and shape.
Compound,Potency,"activity change, negative = cytotoxicity"
CCCCN(N=O)C(=N)N[N+](=O)[O-],active: 62.4 µM,
O=C(CBr)c1ccccc1,"inconclusive: 69 µM [cytotoxic, single point]",
CCCCOC(=O)CCC(=O)OCCCC,,inactive: 2.74%
c1ccc(N=NNc2ccccc2)cc1,"inconclusive: 68.6 µM [cytotoxic, single point]",
O=C(CCl)Nc1ccccc1,active: 54.5 µM,
Cn1cc(-c2ccccc2)c(=O)c(-c2cccc(C(F)(F)F)c2)c1,"inconclusive: 75.1 µM [cytotoxic, single point] and inconclusive: 68.6 µM [cytotoxic, single point]",
CCOP(=S)(OCC)Oc1ccc2c(C)c(Cl)c(=O)oc2c1,"inconclusive: 69.4 µM [cytotoxic, single point] and inconclusive: 68.6 µM [cytotoxic, single point]",
CCOCN(C(=O)CCl)c1c(C)cccc1CC,"inconclusive: 68.6 µM [cytotoxic, partial curve]",
O=S(=O)(O)OOS(=O)(=O)O,inactive,
CCCC(Cn1cncn1)c1ccc(Cl)cc1Cl (stereo not drawn),"inconclusive: 68.6 µM [cytotoxic, single point]",
CN(C)[C@@H]1C(=O)C(C(N)=O)=C(O)[C@@]2(O)C(=O)C3=C(O)c4c(O)cccc4[C@@](C)(O)[C@H]3[C@H](O)[C@@H]12,"inconclusive: 68.5 µM [cytotoxic, single point] and inconclusive: 54.5 µM [cytotoxic]",
CC(=O)/C=C/c1ccc2c(c1)OCO2,"inconclusive: 68.9 µM [cytotoxic, single point]",
CCC(C)(NC(=O)c1cc(Cl)c(C)c(Cl)c1)C(=O)CCl (stereo not drawn),active: 24.5 µM,
CCCCC(O)(Cn1cncn1)c1ccc(Cl)cc1Cl (stereo not drawn),"inconclusive: 68.5 µM [cytotoxic, single point]",
Oc1ccc(Cl)c(Cl)c1Cl,inconclusive: 63.4 µM [cytotoxic],
Clc1ccc(CO/N=C(\Cn2ccnc2)c2ccc(Cl)cc2Cl)c(Cl)c1,active: 16.8 µM,
Clc1ccc(Cl)cc1,"inconclusive: 68.6 µM [rising, partial curve, poor fit]",
C=CCOC(Cn1ccnc1)c1ccc(Cl)cc1Cl (stereo not drawn),"inconclusive: 33.5 µM [cytotoxic, single point]",
CCCCCc1cc(O)cc(O)c1,"inconclusive: 68.9 µM [cytotoxic, single point] and inconclusive: 68.6 µM [cytotoxic, single point]",
CCCCCCCCn1cc[n+](C)c1,"inconclusive: 68.5 µM [cytotoxic, single point]",

# Experiment: Caspase-3/7 induction in CHO-K1 cells by small molecules, qHTS assay (AID 1346980); further: nearly all actives have a fitted effect of over 15% in size
# Details: CHO-K1 caspase-3/7 induction, Caspase-Glo luminescence, 17 h; series mostly up to 92.4 µM; caspase-3/7 activation: at the top concentration
# Procedure, shortened: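 Luminescent Caspase-Glo 3/7 read (30min, room temperature) quantified apoptosis induction. Cells were wild-type CHO-K1, treated with compound for 17hr at 37 C and 5% CO2.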
row,Compound,Potency
1,CC(C)N(C(=O)CCl)c1ccccc1,"inconclusive: 27.3 µM [activator, single point]"
2,COc1cccc2c1C(=O)c1c(O)c3c(c(O)c1C2=O)C[C@@](O)(C(=O)CO)CC3OC1CC(N2CCOC(OC)C2)C(O)C(C)O1 (stereo partly drawn),active: 0.168 µM
3,CCC(C)(NC(=O)c1cc(Cl)c(C)c(Cl)c1)C(=O)CCl (stereo not drawn),active: 21.8 µM

# Experiment: Caspase-3/7 induction in HepG2 cells by small molecules, qHTS cell viability counter screen (AID 1346981); further: nearly all actives have a fitted effect of over 30% in size
# Details: CellTiter-Fluor fluorescence, 17 h; series mostly up to 92.4 µM; activity change, negative = cytotoxicity: at the top concentration
# Procedure, shortened: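 Counter screen for cytotoxicity: HepG2 exposed 16 hr to compounds, then CellTiter-Fluor viability signal (fluorescence, 1 hr reagent incubation).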
row,Compound,Potency
1,CCCCN(N=O)C(=N)N[N+](=O)[O-],"inconclusive: 70.1 µM [cytotoxic, single point]"
2,c1ccc(N=NNc2ccccc2)cc1,"active: 28.3 µM and inconclusive: 61.1 µM [cytotoxic, single point]"
3,O=C(CCl)Nc1ccccc1,"inconclusive: 68.6 µM [cytotoxic, single point]"
4,Cn1cc(-c2ccccc2)c(=O)c(-c2cccc(C(F)(F)F)c2)c1,"inconclusive: 47.4 µM [cytotoxic, partial curve] and inconclusive: 38.6 µM [cytotoxic, partial curve]"
5,CC(C)N(C(=O)CCl)c1ccccc1,"inconclusive: 61.1 µM [cytotoxic, single point] and active: 54.5 µM"
6,CCOCN(C(=O)CCl)c1c(C)cccc1CC,"inconclusive: 64.8 µM [cytotoxic, single point] and inconclusive: 77 µM [cytotoxic]"
7,CC(c1ccccc1)(c1ccc(O)cc1)c1ccc(O)cc1,"inconclusive: 68.6 µM [cytotoxic, single point]"
8,CCCC(Cn1cncn1)c1ccc(Cl)cc1Cl (stereo not drawn),"inconclusive: 77 µM [cytotoxic, single point]"
9,CN(C)[C@@H]1C(=O)C(C(N)=O)=C(O)[C@@]2(O)C(=O)C3=C(O)c4c(O)cccc4[C@@](C)(O)[C@H]3[C@H](O)[C@@H]12,"inconclusive: 61 µM [cytotoxic, partial curve] and inconclusive: 66.9 µM [cytotoxic] and inconclusive: 60.6 µM [cytotoxic]"
10,COP(=O)(OC)OC,"inconclusive: 54.9 µM [cytotoxic, partial curve]"
11,CC(=O)/C=C/c1ccc2c(c1)OCO2,"inconclusive: 77.4 µM [cytotoxic, single point]"
12,CCC(C)(NC(=O)c1cc(Cl)c(C)c(Cl)c1)C(=O)CCl (stereo not drawn),"inconclusive: 77.4 µM [cytotoxic, single point]"
13,CCCCC(O)(Cn1cncn1)c1ccc(Cl)cc1Cl (stereo not drawn),"inconclusive: 68.5 µM [cytotoxic, single point]"
14,Oc1ccc(Cl)c(Cl)c1Cl,"inconclusive: 71.1 µM [cytotoxic, partial curve, poor fit]"
15,Clc1ccc(CO/N=C(\Cn2ccnc2)c2ccc(Cl)cc2Cl)c(Cl)c1,"inconclusive: 33.5 µM [cytotoxic, single point]"
16,Clc1ccc(Cl)cc1,active: 4.32 µM
17,C=CCOC(Cn1ccnc1)c1ccc(Cl)cc1Cl (stereo not drawn),"inconclusive: 68.8 µM [cytotoxic, single point] and inconclusive: 77 µM [cytotoxic, single point]"
18,N#Cc1nn(-c2c(Cl)cc(C(F)(F)F)cc2Cl)c(N)c1S(=O)C(F)(F)F (stereo not drawn),"inconclusive: 33.5 µM [cytotoxic, single point]"
19,CCCCCc1cc(O)cc(O)c1,"inconclusive: 68.9 µM [cytotoxic, single point] and active: 48.6 µM"
20,CCCCCCCCn1cc[n+](C)c1,"inconclusive: 15.2 µM [cytotoxic, single point] and inconclusive: 13.8 µM [cytotoxic, full curve]"
